Measured values: PubChem BioAssay AID624417 (National Center for Advancing Translational Sciences (NCATS), 2012)
Among all 410,000 compounds or so, about 6,400 (1.6%) were called active. Inconclusive means that the source gave no clear call. Such entries were picked first, then a sample of the others. Calls come from the whole dose curve; as a rule, active = well fitted inhibition curve with a large enough effect; inconclusive = small, poorly fitted or top-dose-only effect; inactive = no such curve, though single readings can be large or run the other way. Where the call is inconclusive, the potency comes from a doubtful curve fit.

biological target: Glucagon-like peptide 1 receptor (Homo sapiens) (UniProt P43220); test: qHTS of GLP-1 Receptor Inverse Agonists (Inhibition Mode); settings: HEK293 GLP-1R CRE-luciferase, luminescence, 24 h, GLP-1R form is constitutively active; series mostly up to 38.3 µM; note: nearly all actives have a fitted effect of over 55% in size
How it was run: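 qHTS in 1536-well format: reporter HEK293 cells expressing constitutive GLP-1R activity in DMEM + 10% Nu serum, 24 hr with compounds at 37 deg C, luminescence read after 12 min with detection reagent.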
Potency is the fitted concentration of half-maximal effect; tags give direction and shape of the fitted curve.

Chain of UniProt P43220 (P43220 whole entry, looked up): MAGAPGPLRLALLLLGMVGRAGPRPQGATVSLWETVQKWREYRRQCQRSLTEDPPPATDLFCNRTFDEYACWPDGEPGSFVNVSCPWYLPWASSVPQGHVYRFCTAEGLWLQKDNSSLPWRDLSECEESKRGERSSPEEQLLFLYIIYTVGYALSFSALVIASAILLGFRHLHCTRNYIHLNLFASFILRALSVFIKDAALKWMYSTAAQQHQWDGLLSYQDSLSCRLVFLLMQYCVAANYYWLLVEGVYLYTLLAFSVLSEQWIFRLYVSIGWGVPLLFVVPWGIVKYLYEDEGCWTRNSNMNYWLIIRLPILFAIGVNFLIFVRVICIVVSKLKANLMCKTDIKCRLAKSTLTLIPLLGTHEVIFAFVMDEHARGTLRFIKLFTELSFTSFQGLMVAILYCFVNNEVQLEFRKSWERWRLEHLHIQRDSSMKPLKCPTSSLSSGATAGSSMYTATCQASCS

Potency, active:
CC(C)c1ccc2c(c1)c(SC(C)(C)C)c(CC(C)(C)C(=O)O)n2Cc1ccc(Cl)cc1 2.82 µM

Potency, inactive:
CSc1ccccc1NC(=O)C1=COCCO1
CN(C)S(=O)(=O)c1ccc(C(=O)Nc2ccccc2[N+](=O)[O-])cc1
Cc1nn(-c2ccccc2)c2[nH]c(=O)c(CNc3ccc4c(c3)OCCO4)cc12
Cc1cc(C)c(NC(=O)CSC2=Nc3ccccc3C3=NC(CC(=O)NCc4cccs4)C(=O)N23)c(C)c1 (configuration not stated)
O=C(Oc1oc(-c2ccco2)nc1C=Nc1ccccc1)c1ccco1
COC(=O)C(O)(CC(=O)Nc1ccc(Cl)cc1F)C(F)(F)F (configuration not stated)
O=C(CN1c2ccc(Br)cc2-c2ccccc2S1(=O)=O)N1CCCCC1
Cc1ccc(CNC(=O)c2oc3c(c2C)-c2nn(Cc4ccc(Cl)cc4)cc2CC3)cc1
CC(=O)c1ccc(OCCCC(=O)Nc2cc(Cl)ccc2-n2cncn2)cc1
COc1ccc(C(CNC(=O)c2cccc(S(=O)(=O)Nc3cccc(C)c3)c2)N2CCOCC2)cc1 (configuration not stated)
Cc1ccc[n+](CC(=O)c2cc3ccccc3oc2=O)c1
COCCNc1ncnc2c1c(-c1ccccc1)cn2-c1ccc(C)c(Cl)c1

Potency, inconclusive:
Cc1cccn2c(=O)c(C(=O)NC(C)c3ccccc3)c(O)nc12 (configuration not stated) 7.94 µM [inhibitor, partial curve, poor fit]
Cc1ccc(NCc2ccccc2OCc2ccccc2F)cc1 11.2 µM [inhibitor, partial curve, poor fit]
COc1cccc(NC(=O)Nc2ccc3c(c2)CCC3)c1 28.2 µM [inhibitor, single point]
CCOC(=O)C1CCCN(C(=S)Nc2ccc(Nc3ccccc3)cc2)C1 (configuration not stated) 28.2 µM [inhibitor, single point]
COc1ccc(/C=C/C(=O)Nc2ccc(C)cc2)cc1S(=O)(=O)N1CCOCC1 3.16 µM [inhibitor, partial curve]
CN1C(=O)[C@H]2[C@@H](c3ccc(C(F)(F)F)cc3)N[C@]3(CCCN(Cc4ccc(Br)cc4)C3=O)[C@H]2C1=O 11.2 µM [inhibitor, single point]
CCCOC(=O)c1ccc(NC(=O)c2c(Cl)ccc(Cl)c2OC)cc1 2.82 µM [inhibitor, partial curve, poor fit]
CCO[C@@H]1OC(C(=O)NCc2ccccc2)=C[C@H](c2ccc(Br)cc2)[C@H]1CCCO 7.08 µM [inhibitor, partial curve, poor fit]
Fc1ccc(NC(=S)N2CCCC(c3ccccc3)=N2)cc1 22.4 µM [inhibitor, single point]
COc1ccc(C(=O)c2sc3nc(-c4ccccc4)ccc3c2N)cc1OC 28.2 µM [inhibitor, single point]
N=c1c(C(=O)NCCc2ccccc2)cc2c(=O)n3ccccc3nc2n1CCCN1CCOCC1 28.2 µM [inhibitor, single point]
COc1ccccc1NC(=O)NNC(=O)C(C)Oc1ccc2ccccc2c1 (configuration not stated) 10 µM [inhibitor, partial curve]
O=C(NCCc1ccccc1)C(c1cccs1)N(C(=O)c1csnn1)C1CC1 (configuration not stated) 2 µM [inhibitor, full curve, poor fit]
O=C1[C@@H]2[C@@H]3C[C@@H]([C@H]4ON=C(c5ccc(Cl)cc5)[C@@H]34)[C@@H]2C(=O)N1C1CCCCC1 28.2 µM [inhibitor, single point]
CCc1cccc2sc(NC(=O)C3CC3)nc12 31.6 µM [inhibitor, single point]
COC(=O)c1c(C)oc2c1cc(NS(=O)(=O)c1cccs1)c1ccccc12 10 µM [inhibitor, partial curve, poor fit]
CC1(C)Cc2ccccc2-c2nc3n(c(=O)c21)CCCS3 8.91 µM [inhibitor, partial curve, poor fit]
COc1ccc(-c2ccc(=O)n(Cc3cccc(Cl)c3)n2)cc1 12.6 µM [inhibitor, single point]
COCCN(C(=O)COC(=O)/C=C/c1ccc2ccccc2n1)c1c(N)n(Cc2ccccc2)c(=O)[nH]c1=O 10 µM [inhibitor, single point]
COc1ccc(-n2ncc3c(NC(C)(C)CO)ncnc32)cc1 10 µM [inhibitor, partial curve]
CCc1ccc(C2CC(=O)NC(SCC(=O)OC(C)C)=C2C#N)cc1 (configuration not stated) 14.1 µM [inhibitor, partial curve, poor fit]
O=C(Nc1cccc(O)c1)c1cc(-c2ccccc2Cl)on1 22.4 µM [inhibitor, single point]
CN1CCN(C(c2cccc(Cl)c2)c2ccccc2Cl)CC1 (configuration not stated) 10 µM [inhibitor, partial curve, poor fit]
O=C1C(=O)N2C(=C1C(=O)N1CCCCCC1)c1ccccc1CC21CCCC1 7.94 µM [inhibitor, partial curve, poor fit]
O=S(=O)(Nc1ccc2nc(C(F)(F)F)[nH]c2c1)c1ccccc1 0.501 µM [inhibitor, partial curve, poor fit]
O=C(CSc1nnnn1-c1cccc2c1CCCC2)N1CCCC1 12.6 µM [inhibitor, single point]
O=C(Nc1ccccc1F)Nc1ccccc1N1CCCCC1 7.08 µM [inhibitor, partial curve, poor fit]
COc1ccc(Oc2ccccc2C=O)cc1 11.2 µM [inhibitor, single point]
CCN1C(=O)CSC1=NC1C2CC3CC(C2)CC1C3 (configuration not stated) 11.2 µM [inhibitor, partial curve, poor fit]
